Results: publication PMC10866649
For part of its entries the source gives two or more results. Only these are listed. An entry can have further records. The values listed for one entry read as repeated measurements on other runs, samples or individuals; one of them may be the mean.

Biological target: Wild-type human IgG1 Fc (human)
Test: SPR + BLI; Fcs immobilised on chips or captured on biosensors; human or mouse FcRn at 1,600 nM to 50 nM in 2-fold dilutions, pH 6.0; Biacore 3000 and Octet K2 both named

Human neonatal Fc receptor (FcRn) (from UniProt P55899 24-297; P61769 21-119)
Kd: 138 nM, 845 nM, 1.88 µM [columns of one line]
